Laboratory results from the supplement of paper PMC4723716.
In all, about 3,600 compounds were measured (“viability index relative to DMSO control”: median about 0.81, lowest 2% from about 0.13 on). The list shows a part of the results.

tested on: Plasmodium falciparum NF54 stage V gametocytes; assay: viability index relative to DMSO control (fraction); higher = less gametocyte killing; conditions: 1.25 µM, incubation time: 72 h
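Also: 384-well serum-free SaLSSA: MitoTracker Red CMXRos staining with saponin lysis, high-content imaging, treated-well particle count divided by plate-mean count of DMSO wells.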

Row | SMILES | viability index
1 | COc1ccc(C(NC(=O)c2cccnc2)c2cc(Cl)c3cccnc3c2O)cc1 (stereo not drawn) | 1.13
2 | O=C(Cn1c2ccccc2c(=O)c2ccc(Cl)cc21)Nc1ccc(C(F)(F)F)cc1 | 0.534
3 | CC1CCN(S(=O)(=O)c2ccc(C(=O)NCc3ccco3)cc2)CC1 | 1.17
4 | O=C(CSc1ccc(Cl)cc1)NN=C1C(=O)Nc2ccccc21 | 1.32
5 | COC(=O)C1C(=O)C2=C(CC1C)NC(=O)CC2c1ccc(Cl)cc1Cl (stereo not drawn) | 0.442
6 | COC(=O)C1=C(C)NC2=C(C(=O)CC(c3ccc(OC)c(OC)c3)C2)C1c1ccccc1Br (stereo not drawn) | 0.903
7 | COc1ccc(C=NNc2cc(C)nc3ccc(OC)cc23)c(OC)c1 | 0.591
8 | Cc1cccc(-c2nc3cc(NC(=S)NC(=O)c4ccc(Cl)cc4)ccc3o2)c1 | 0.808
9 | CCOC(=O)c1cnc2ccc(Cl)cc2c1NCCCN(C)C | 0.66
10 | CCN(CC)CCNc1ccc(Nc2ccnc3cc4ccccc4cc23)cc1 | 0.423
11 | COc1ccc(OC)c(C2CC(=O)C3=C(C2)NC(=O)CC3c2ccc([N+](=O)[O-])cc2)c1 (stereo not drawn) | 0.751
12 | C=CCOc1cccc(/C=C2/NC(C)=C(C(=O)OCC)C2=O)c1 | 1.08
13 | CCN(CC)CCCC(C)Nc1c2ccc(Cl)cc2nc2ccc(OC)cc12 (stereo not drawn) | 0.495
14 | CNC(=O)c1nn(C)c2c1CC(NCC1CCCCC1)CC2 (stereo not drawn) | 0.702
15 | Cc1cc(C)n(CC(O)Cn2c3ccc(Cl)cc3c3cc(Cl)ccc32)n1 (stereo not drawn) | 0.581
16 | O=c1c(=O)n(Cc2cccc(C(F)(F)F)c2)ccn1CCc1ccccc1 | 0.751
17 | CC1(C)C2CCC(C2)C1(C)NC(=S)NN=Cc1ccccn1 (stereo not drawn) | 0.0373
18 | CCCN(CCC)CCNC(=O)c1cc2c(-c3ccc(Cl)cc3)nn(C)c2s1 | 0.9
19 | COc1ccc(-n2nc([N+](=O)[O-])c(Nc3ccc([N+](=O)[O-])cc3C)[n+]2[O-])cc1 | 1.01
20 | CC(C)CN1C(=O)c2ccccc2C(C(=O)Nc2ccccc2F)C1c1cccs1 (stereo not drawn) | 0.446

Row | SMILES | viability index
21 | Nc1ccc(-c2nc3ccc(-c4nc5ccc(N)cc5[nH]4)cc3[nH]2)cc1 | 0.573
22 | Cc1occc1C(=O)NN=CC(Cl)=Cc1ccccc1 | 0.819
23 | COc1ccc(-[n+]2cc(-c3ccc(Cl)cc3)n3c2SCCC3)cc1 | 0.842
24 | COc1ccc2c(c1)N(C(=O)CSc1nc3ccccc3o1)C(C)(C)c1ssc(=S)c1-2 | 0.611
25 | CSc1cccc(NC(=O)C2C3C=CC4(O3)C2C(=O)N(CCN2CCCCC2)C4C(=O)NC2CCCC(C)C2C)c1 (stereo not drawn) | 1.2
26 | CCN(CC)c1nc(-c2cccnc2)nc2ccccc12 | 0.682
27 | CCN1CCCC1CNc1ncnc2c1[nH]c1ccc(F)cc12 (stereo not drawn) | 1.2
28 | C=CCc1c(C)nc2ccccc2c1O | 0.713
29 | CC1=C(C(=O)OC2CCCCC2)C(c2ccc(F)c(F)c2)C2=C(CCCC2=O)N1 (stereo not drawn) | 0.855
30 | CCOc1cc2c(cc1OCC)C(c1cc(OC)c(O)cc1Cl)NCC2 (stereo not drawn) | 1.05
31 | COc1cc(-c2nc(-c3cccc(Cl)c3)c(-c3ccccc3)[nH]2)cc(OC)c1O | 1.09
32 | Cc1cc(C)c2c(c1)-c1c(ssc1=S)C(C)(C)N2C(=O)COc1nc2ccccc2s1 | 0.23
33 | COC(=O)C1=C(C)NC2=C(C(=O)CC(c3ccc(OC)c(OC)c3)C2)C1c1ccc(F)cc1 (stereo not drawn) | 0.707
34 | CC1CC(N(C(=O)c2ccc(Cl)cc2Cl)c2ccccc2)c2ccccc2N1C(=O)c1ccc(Cl)cc1 (stereo not drawn) | 0.723
35 | COc1ccc(Nc2nc(NCc3ccccc3)c3ccccc3n2)cc1 | 0.58
36 | O=C(CSc1nc2ccccc2c(=O)n1-c1ccc(C(=O)N2CCOCC2)cc1)c1ccccc1 | 1.42
37 | O=[N+]([O-])c1ccc2nc(Nc3ccc(Cl)c(Cl)c3)c(Nc3ccc(Cl)c(Cl)c3)nc2c1 | 0.0962
38 | Cc1ccc(-c2nn(CC(=O)Nc3cccc(C)c3)c(=O)c3ccccc23)cc1 | 0.97
39 | Cc1c(NC(=S)N2CCOCC2)c(=O)n(-c2ccccc2)n1C | 1.14
40 | Cc1c(Cl)cccc1NC(=S)N(CCCN(C)c1ccccc1)Cc1cccn1Cc1ccc(Cl)cc1 | 1.48

Row | SMILES | viability index
41 | CCOC(=O)c1nnn(-c2nonc2N)c1-c1ccc(OC)c(OC)c1 | 0.855
42 | CC(=O)N(C1=C(N(C)C)C(=O)c2ccccc2C1=O)c1cccc(Cl)c1 | 0
43 | Cc1ccc(Nc2nc(NCc3ccccc3)c3ccccc3n2)cc1 | 0.388
44 | Oc1ccc(-c2ccc3c(c2)OCO3)cc1CNCC1(N2CCCCC2)CCCCC1 | 0.365
45 | CC(C)C1Oc2cc3oc(=O)ccc3cc2C1=NO (stereo not drawn) | 0.842
46 | CCOc1ccccc1NC(=O)Cn1c(=O)n(Cc2ccccc2)c(=O)c2c(C)c(C(=O)N(C)C)sc21 | 0.83
47 | CN(C)c1nc(Cl)nc(N(C#N)CCOc2ccccc2)n1 | 0.71
48 | S=C(NCc1ccco1)NC1CC2CCC(C1)N2Cc1ccccc1 (stereo not drawn) | 1.32
49 | O=C(NC1CC1)c1ccc(N2CCC(Cc3ccccc3)CC2)c([N+](=O)[O-])c1 | 0.664
50 | Cc1onc(-c2ccccc2Cl)c1C(=O)Nc1cc(Cl)ccc1Cl | 0.71
51 | CCCCCSc1scc(-c2ccc(O)c(O)c2)[n+]1C | 0.973
52 | COc1ccccc1C(=O)NN=C(C)c1cccnc1 | 0.947
53 | CN(C)CCCNC1=NC=NC2C=C(Cl)C=CC12 (stereo not drawn) | 0.945
54 | COc1cccc(NC(=O)C2C3C=CC4(O3)C2C(=O)N(Cc2ccc3c(c2)OCO3)C4C(=O)NC2CCCCC2C)c1 (stereo not drawn) | 0.896
55 | CCOC(=O)C1=C(C)NC(=Cc2cc(C)n(-c3ccc(C)cc3C)c2C)C1=O | 0.494
56 | CCOC(=O)C1=C(C)NC2=C(C(=O)CC(c3ccc(OC)c(OC)c3)C2)C1c1ccc(F)cc1 (stereo not drawn) | 0.629
57 | CC(=O)Nc1cc(C(F)(F)F)cc(C(F)(F)F)c1 | 0.697
58 | COc1ccc(CN(Cc2ccc(C(C)C)cc2)S(=O)(=O)c2ccc(S(=O)(=O)N3CCN(c4ccccc4F)CC3)cc2)cc1 | 1.01
